± gives the standard deviation of the averaged measurements. Some of the results follow.
tested on: PfAP2-I AP2 domain 3 (GST-tagged); assay: gcPBM binding intensity (ln(normalized median fluorescence intensity)); higher = stronger DNA binding
Method in brief: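 Probes on an Agilent 4 × 180k array were primer-extended, double-stranded and 36 bp long, taken from intergenic genomic regions, with negative controls added. GST-tagged P. falciparum DNA-binding domains from E. coli, about 25 μg on average, were applied to the array for 1 h in 1× PBS containing 1% milk, 0.2 mg/ml BSA, 0.5% salmon testes DNA and 0.03% Triton X-100. Binding intensity, obtained after Alexa488 anti-GST antibody detection and a 488 nm scan, is the highest Masliner-normalised natural-log median intensity across replicate spots of either probe orientation.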

Point of comparison: “TACCTTTTTTGTTTTATGCACACCATATAACCAAGG [CACACA_site30]”, “gcPBM binding intensity (ln)” value 10.3 ± 0.33. Against it:
- TTTTTAAATTATTGCACACAAAAATGAAAGGAAAAA [CACACA_site1455] — within error, 10.1 ± 0.6
- CTAAAAATCTTTTGTTGTACTTTTAGATAATCAGGA [XGTACX_site3968] — lower, 7.5 ± 0.6
- TACATATTTATATACACACACACCGTCCGTGTTAAA [CACACA_site7413] — lower, 7.91 ± 0.47
- AAAGGGATGTTCATTCTTTTTTTTTTTTTTGTATAT [CACACA_negctrl_site511] — lower, 7.16 ± 0.6
- AAGTAAAAAAATAGCACACACACAAAAACACAGACA [CACACA_site4839] — lower, 8.44 ± 0.18
- TATATTTTTTTTGTGCGTACATACCATTTTAATAAT [XGTACX_site2751] — lower, 8.71 ± 0.16
- CACAAACAAAAACACACACACACACCCACAAAAATG [CACACA_site2429] — lower, 8.29 ± 0.057
- ATTGGGTACAAATACACACACATATAAATATTAATA [CACACA_site7173] — lower, 8.01 ± 0.19
- TATTATTTTATGAATACACACATATACGAAAATATT [CACACA_site964] — lower, 7.66 ± 0.52
- AATTATTGTATGCTATACGTTCCCCTCTAATTTATC [CACACA_negctrl_site1052] — lower, 7.82 ± 0.92
- TATTTTTATATAATGTGTACTTATACCTTATTTTTT [XGTACX_site1658] — lower, 7.76 ± 0.52
- AAAAAAAAAAAAAAAACACACAATAAAGTAAAATTT [CACACA_site135] — lower, 8.73 ± 0.54
- ATATATAAATTTTAGTGTACATTAATTTTTTTTTTT [XGTACX_site7782] — lower, 7.74 ± 0.42
- TAAATATATTAAGCTTGTACATGAAAAAAAAAAAAA [XGTACX_site3264] — lower, 8.1 ± 0.59
- AGTCTGAATAAAATTACACACATATACATATATATA [CACACA_site1780] — lower, 8.09 ± 0.76
- TATGTATATAAATTAACACACATATGTGGTTAATAG [CACACA_site3143] — lower, 7.8 ± 0.52
- TAAAAAAAAAAAAAAGCATGCTATATTATATTACAC [TGCATGCA_site241] — lower, 7.92 ± 0.5
- TTTTTTTTTCCGTGTTGTACAAAAAAAAAGATTTTG [XGTACX_site3925] — lower, 8.09 ± 0.54
- AAGAAATATTTATACACACACACAAACATATAAATA [CACACA_site6981] — lower, 8.05 ± 0.47
- TATAACTATTCACAGACATGCACATAATAACAATAA [TGCATGCA_site207] — lower, 8.37 ± 0.57
- TATATATATATAGACACACACACACCCATATATATA [CACACA_site4117] — lower, 9.295 ± 0.007
- TATAACTATAAAAGTAGTACACATATATATTATATA [XGTACX_site1391] — lower, 8.02 ± 0.092
- TTTTTTTAAATATACACACACATTTATACCTATATA [CACACA_site7572] — lower, 7.93 ± 0.49

Source: the supplement of paper PMC11417369
